These results are taken from the supplement of paper PMC11417369.

± gives the standard deviation of the averaged measurements. The list shows a part of the results.

The test system of the assay is PfAP2-I AP2 domain 3 (GST-tagged). The assay can be described thus: gcPBM binding intensity (ln(normalized median fluorescence intensity)); higher = stronger DNA binding. In a few lines:
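DNA-binding domains from P. falciparum, fused to GST and produced in E. coli, were put on an Agilent 4 × 180k double-stranded probe array for 1 h in 1× PBS holding 1% milk, 0.2 mg/ml BSA, 0.5% salmon testes DNA and 0.03% Triton X-100. Probes were primer-extended, 36 bp long and drawn from intergenic genomic regions, with negative controls included. After Alexa488 anti-GST antibody detection and a 488 nm scan, binding intensity was set as the highest Masliner-normalised natural-log median intensity across replicate spots of either probe orientation.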
Consider “ATATATATAAATAAATGTACATAAATAATATATTAT [XGTACX_site5419]”, for which the “gcPBM binding intensity (ln)” value was 8.06 ± 0.72.

On to “TATATATATATATATATATTTATGTATTTATTTAAT [TGCATGCA_negctrl_site179]”, for which the “gcPBM binding intensity (ln)” value came out at 9.41 ± 0.64. With “TTATTTTTATATTTTAATTTTAAAAAAATTTTAATT [CACACA_negctrl_site777]” the figure was 7.34 ± 0.33; with “ATTATACATATTATATGTACATATATAAATAAATAA [XGTACX_site7076]”, 7.79 ± 0.42; with “TTAATTTATTATCTTTGTACACAATTAAAAAAAAAA [XGTACX_site3469]”, 7.93 ± 0.23. With “TTTTATTATAATAATTGTACAAAAATTATTTAATAT [XGTACX_site6054]” the figure was 7.62 ± 0.3; with “ATAAATATACATTATACCGACCATGTGGATATTATA [XGTACX_negctrl_site241]”, 7.76 ± 0.56; with “AAAAAAAAAAAAAAAAGTACAAGCATTGCGTTTTAA [XGTACX_site6075]”, 8.7 ± 0.58. The value for “AGAAAAAAAAAAAAAAAAATATATATATATATATAT [TGCATGCA_negctrl_site411]” was 9.46 ± 0.39; that for “GTATATATATACCATTGTACTTTCGTAAAAATATTT [XGTACX_site4846]” was 7.82 ± 0.61.

In the case of “AAAAAAAAAAAAAAAACACACATACACGCACGCACA [CACACA_site7569]”, the “gcPBM binding intensity (ln)” value came out at 9.31 ± 0.5. The value for “AAATTACACATCCATACACACATATTTTTTTTAATT [CACACA_site5242]” was 7.97 ± 0.72; that for “GTATATATGTATATGTGTACACATATTCTTAACTCA [XGTACX_site309]” was 8.12 ± 0.35; that for “ATATAAATTGGCAATAGTACATAAAGGCATAGAAAG [XGTACX_site2674]” was 8.29 ± 0.69. As to “AGCTGAAAAAAAAGCTTGCACACGTATTTGCTTTAT [CACACA_site1512]”, the “gcPBM binding intensity (ln)” value was found to be 7.83 ± 0.76. The value for “AATATGTAGTAATCAAGTACTAATGTCTTAATTCGG [XGTACX_site308]” was 7.49 ± 0.56; that for “GTTTTTTATATAAGGTGGTCAACATTGTAATGTTAA [XGTACX_site3204]” was 8.07 ± 0.5; that for “CATATTATATTCTGCTTACACACATATATATATATA [CACACA_site3059]” was 9.36 ± 0.29. Regarding “TTTTTTTGTTATATCCTGCACTTCTTAACTATATTA [GTGCAC_site9807]”, the “gcPBM binding intensity (ln)” value amounted to 9.15 ± 0.52. Consider “AATAATAAGAATAACGCATGCACATATAATATAGAA [TGCATGCA_site3]”, for which the “gcPBM binding intensity (ln)” value turned out to be 8.28 ± 0.79. With “ACGATGAATATGTAAAGTACGCAAATGTAACAATAT [XGTACX_site728]” the figure was 8.12 ± 0.77; with “TCATAGGTTCAAAAGGGTACATTAATACATACATAT [XGTACX_site2236]”, 7.78 ± 0.53. The value for “AAATAAAAAAAGGGAACATGCAATATGTACAAATAT [TGCATGCA_site869]” was 8.46 ± 0.64; that for GTAGTTACATATAGGGTGCTCCAATAGTTGACCTCG was 8.46 ± 0.15; that for “TCTTTTTTCTTTTTTTCACACATTATTTTTTAAATA [CACACA_site5197]” was 7.95 ± 0.51. With “CATATATATTGATATGCACACCTATGTATTGATGTA [CACACA_site8269]” the figure was 8.85 ± 0.042. For “AGCATTTTTCATTTTGCACACATGTTTTATGGGTAT [CACACA_site5839]”, the “gcPBM binding intensity (ln)” value was determined as 9.725 ± 0.007.

For “TATATGGAAAATTAAAGTACTAAAGAATAAATAGAA [XGTACX_site8796]”, the “gcPBM binding intensity (ln)” value was 8.06 ± 0.33. For the sequence “TATAAAATAAATTGTGCACACATATTTATAAATATG [CACACA_site2330]”, the “gcPBM binding intensity (ln)” value is 10.71 ± 0.078. With “TATAGATACATATACACACACACACCGACATATATA [CACACA_site9138]” the figure was 7.84 ± 0.45; with “AATAATAGAAGCACCCACCCACCACCACCCACACAT [CACACA_negctrl_site1033]”, 9.9 ± 0.29; with “GAGAAACTTGTTTAAACATGCACAAAAAAAAAAAAA [TGCATGCA_site340]”, 8.38 ± 0.53. The value for “TATTTTATTATTATTATTTCTTTATAGTGTATTCTA [CACACA_negctrl_site517]” was 7.5 ± 0.71; that for “TATTTTATTATTATTATTAGTATGATTTCTTTATAG [CACACA_negctrl_site550]” was 7.49 ± 0.53; that for “GGATAGGCATAACATAGTACGTACAAATATATATAT [XGTACX_site454]” was 9.01 ± 0.071.

For the sequence “TTTTCGTAACTGATTCAACACACAAAAGGGGGAAAA [CACACA_site8517]”, the “gcPBM binding intensity (ln)” value was 8.44 ± 0.25.

Take “AATATATAGCTAAAAACACACAAATATATACACATA [CACACA_site9203]”: the “gcPBM binding intensity (ln)” value is 7.62 ± 0.62.

Take “TTTTTTGTACCAAAAAAAAAAAAAAGAAAAAAAAAC [CACACA_negctrl_site1416]”: the “gcPBM binding intensity (ln)” value worked out at 7.82 ± 0.43.

Consider “TTATAAAAATTTAGTTGTACATGTCAAATTATCAAT [XGTACX_site7229]”, for which the “gcPBM binding intensity (ln)” value is 7.74 ± 0.33. The value for “TAAGACAATAAATGCTGTACAATTGAATATCTTGGA [XGTACX_site636]” was 7.43 ± 0.67. The value for “TATATCCCTTAGAATACACACCCATATGAGTGTGAA [CACACA_site8965]” was 7.49 ± 0.45; that for “TAATGATAAATACATACACACAAAAAATGATATATA [CACACA_site7258]” was 7.54 ± 0.49. The value for “AATGTAAAATCTTCATATACATTTAAGTCTGTATTT [TGCATGCA_negctrl_site183]” was 7.14 ± 0.68.
